Measurements as given in PMC5215335.
Results are given in words; binding and its absence hold for the method and conditions named. For some of these results: Binding seen in cells or lysates may run through a third protein. Some binding calls cover weakened binding; strength is not graded here. For some of these results: Where a sequence is shown, tags or fusion partners need not be part of it.

Legend:
[1] = target: T1, yellow fluorescent protein (YFP)-tagged pUL7 (HSV-1 strain KOS) (UniProt P10191); assay: co-IP
T1 sequence: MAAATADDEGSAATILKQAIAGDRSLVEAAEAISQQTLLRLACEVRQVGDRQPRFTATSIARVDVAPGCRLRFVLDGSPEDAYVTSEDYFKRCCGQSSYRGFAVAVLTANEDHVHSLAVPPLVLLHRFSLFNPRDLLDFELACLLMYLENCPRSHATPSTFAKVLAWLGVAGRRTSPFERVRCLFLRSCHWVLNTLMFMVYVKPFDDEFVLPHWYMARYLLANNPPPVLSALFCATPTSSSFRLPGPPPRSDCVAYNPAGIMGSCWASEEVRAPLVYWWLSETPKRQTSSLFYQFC

[2] = target: T2, pUL7-GST (HSV-1 strain KOS) (UniProt P10191); assay: pull-down; both purified
T2 sequence: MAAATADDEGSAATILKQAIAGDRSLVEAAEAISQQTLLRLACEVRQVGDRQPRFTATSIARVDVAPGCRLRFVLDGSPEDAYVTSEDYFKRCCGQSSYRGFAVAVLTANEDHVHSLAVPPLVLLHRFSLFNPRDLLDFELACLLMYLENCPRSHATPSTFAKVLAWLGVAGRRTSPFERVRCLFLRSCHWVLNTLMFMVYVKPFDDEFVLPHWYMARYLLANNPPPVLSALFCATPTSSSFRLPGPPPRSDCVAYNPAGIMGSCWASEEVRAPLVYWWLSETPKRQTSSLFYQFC

GST-pUL51 (HSV-1) = GST-pUL51 (HSV-1) (UniProt P10235); assay: pull-down
GST-pUL7 (HSV-1) = target: T3, GST-pUL7 (HSV-1) (UniProt P10191); assay: pull-down
T3 sequence: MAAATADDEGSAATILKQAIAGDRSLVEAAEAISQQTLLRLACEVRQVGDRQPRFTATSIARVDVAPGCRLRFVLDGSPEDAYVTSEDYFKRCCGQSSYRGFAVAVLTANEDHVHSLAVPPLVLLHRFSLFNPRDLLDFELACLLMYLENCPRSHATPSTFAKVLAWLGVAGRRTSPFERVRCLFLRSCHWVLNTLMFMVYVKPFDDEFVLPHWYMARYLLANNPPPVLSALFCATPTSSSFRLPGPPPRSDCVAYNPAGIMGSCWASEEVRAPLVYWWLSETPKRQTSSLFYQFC

pUL51 (HSV-1 strain KOS) = pUL51 (HSV-1 strain KOS) (UniProt P10235); assay: co-IP

## pUL51 (from UniProt P10235 1-244)
[1]
  binding: binds

## His6-pUL51(29-170) (from UniProt P10235 29-170) (domain or fragment)
[2]
  binding: binds

## GFP-pUL48 (from UniProt P06492 1-490)
GST-pUL51 (HSV-1)
  binding: no binding
GST-pUL7 (HSV-1)
  binding: no binding

## GFP-pUL51 (from UniProt P10235 1-244)
GST-pUL7 (HSV-1)
  binding: binds

B1: GFP-pUL7 (protein, UniProt P10191 1-296)
chain: MAAATADDEGSAATILKQAIAGDRSLVEAAEAISQQTLLRLACEVRQVGDRQPRFTATSIARVDVAPGCRLRFVLDGSPEDAYVTSEDYFKRCCGQSSYRGFAVAVLTANEDHVHSLAVPPLVLLHRFSLFNPRDLLDFELACLLMYLENCPRSHATPSTFAKVLAWLGVAGRRTSPFERVRCLFLRSCHWVLNTLMFMVYVKPFDDEFVLPHWYMARYLLANNPPPVLSALFCATPTSSSFRLPGPPPRSDCVAYNPAGIMGSCWASEEVRAPLVYWWLSETPKRQTSSLFYQFC
GST-pUL51 (HSV-1)
  binding: binds

B2: pUL7 (protein, UniProt P10191 1-296)
chain: MAAATADDEGSAATILKQAIAGDRSLVEAAEAISQQTLLRLACEVRQVGDRQPRFTATSIARVDVAPGCRLRFVLDGSPEDAYVTSEDYFKRCCGQSSYRGFAVAVLTANEDHVHSLAVPPLVLLHRFSLFNPRDLLDFELACLLMYLENCPRSHATPSTFAKVLAWLGVAGRRTSPFERVRCLFLRSCHWVLNTLMFMVYVKPFDDEFVLPHWYMARYLLANNPPPVLSALFCATPTSSSFRLPGPPPRSDCVAYNPAGIMGSCWASEEVRAPLVYWWLSETPKRQTSSLFYQFC
pUL51 (HSV-1 strain KOS)
  binding: binds
